Laboratory results taken from a collection of fitness landscapes (doi:10.1038/s41467-024-54723-y).
In all, about 18,000 sequences were measured (“TetR repression strength (sort-seq, GFP reporter)”: median about 0.23, highest 2% from about 0.68 on). Some of the results follow.

What follows are sequences tested against TetR (class B, Tn10) (UniProt P04483) (assay: TetR repression strength (sort-seq, GFP reporter) (relative to tetO2 = 1); higher = stronger repression). Conditions: E. coli.
Outline: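 E. coli SIG10-MAX carried a low-copy plasmid library with eight randomized operator positions between a constitutive promoter and sfGFP, with TetR constitutively expressed. Cells grew 5 h at 37 °C in LB with 50 µg/mL chloramphenicol, then 10^6 cells were FACS-sorted into 13 fluorescence bins, each Illumina-sequenced. Repression strength is the top bin index plus one minus the read-weighted mean bin, divided by the wild-type operator value. Three independent transformations; variants with ≥30 reads in all replicates and CV ≤0.5 were averaged.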

UniProt P04483, sequence (P04483 whole entry): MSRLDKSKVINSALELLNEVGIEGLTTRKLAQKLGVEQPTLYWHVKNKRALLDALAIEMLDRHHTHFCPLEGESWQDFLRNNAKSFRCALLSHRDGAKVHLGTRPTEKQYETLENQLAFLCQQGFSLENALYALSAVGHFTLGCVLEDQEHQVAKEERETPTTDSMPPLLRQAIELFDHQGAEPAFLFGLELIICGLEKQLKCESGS

Sequence | TetR repression strength
TCCCCCTGAGTGCCTGAGA | 0.245
TCCCTCTCAGTTGGGGAGA | 0.203
TCCCTACAAGTGGATGAGA | 0.221
TCCCCCGGAGTGAGAGAGA | 0.295
TCCCAAGCAGTGGGCGAGA | 0.314
TCCCTGAGAGTGGATGAGA | 0.0518
TCCCGACTAGTTAGCGAGA | 0.682
TCCCAAAAAGTTGGTGAGA | 0.318
TCCCTTTGAGTGATTGAGA | 0.263
TCCCCCTGAGTGCGTGAGA | 0.236
TCCCGCAGAGTCAGAGAGA | 0.218
TCCCTGGTAGTTCCAGAGA | 0.111
TCCCGTTGAGTCAGGGAGA | 0.163
TCCCATACAGTTTTAGAGA | 0.332
TCCCGTTAAGTCTGCGAGA | 0.104
TCCCAGTGAGTTGGTGAGA | 0.19
TCCCATGTAGTGGCTGAGA | 0.356
TCCCGATCAGTGGAGGAGA | 0.0905
TCCCTCCCAGTGCCTGAGA | 0.317
TCCCGGAGAGTGCGAGAGA | 0.402
TCCCTTTTAGTGTAGGAGA | 0.239
TCCCTGTAAGTACACGAGA | 0.0138
TCCCCACCAGTGGATGAGA | 1.05
TCCCGTTGAGTTATAGAGA | 0.37
TCCCTTTGAGTAATCGAGA | 0.186
TCCCAGGAAGTAACTGAGA | 0.188

Sequence | TetR repression strength
TCCCCTTAAGTGACCGAGA | 0.25
TCCCCTAGAGTAGCTGAGA | 0.274
TCCCGCAGAGTGCATGAGA | 0.032
TCCCTGCAAGTTGGCGAGA | 0.0657
TCCCCGGCAGTAACGGAGA | 0.0284
TCCCGTAAAGTGCTTGAGA | 0.243
TCCCGCAAAGTTAGCGAGA | 0.238
TCCCGCTTAGTTTCAGAGA | 0.18
TCCCAGGAAGTGACGGAGA | 0.258
TCCCTGATAGTCAGCGAGA | 0.104
TCCCCGTCAGTGACAGAGA | 0.531
TCCCCAGCAGTGTTCGAGA | 0.25
TCCCAGTAAGTTGTGGAGA | 0.265
TCCCGGTGAGTGTCGGAGA | 0.115
TCCCGGTCAGTTGCAGAGA | 0.271
TCCCGGCAAGTCCGCGAGA | 0.181
TCCCAAAAAGTGTGTGAGA | 0.26
TCCCTCAGAGTGAAAGAGA | 0.172
TCCCGTCGAGTGCCGGAGA | 0.363
TCCCAGGCAGTTAGAGAGA | 0.266
TCCCTGAGAGTCCGCGAGA | 0.276
TCCCACCTAGTGCACGAGA | 0.122
TCCCCGGGAGTGTCTGAGA | 0.181
TCCCCGGGAGTGGGAGAGA | 0.182
TCCCTCTCAGTGCGCGAGA | 0.281
TCCCTAAAAGTAGTCGAGA | 0.471

Sequence | TetR repression strength
TCCCCGCGAGTTGTAGAGA | 0.0957
TCCCCAGTAGTCACCGAGA | 0.194
TCCCTCATAGTGGGCGAGA | 0.213
TCCCTTCCAGTGTGCGAGA | 0.322
TCCCTCTCAGTAATGGAGA | 0.425
TCCCATCAAGTGGAGGAGA | 0.159
TCCCCGGAAGTGTAAGAGA | 0.323
TCCCGCGTAGTGCAGGAGA | 0.245
TCCCAAAAAGTTACTGAGA | 0.419
TCCCGCAGAGTTGGCGAGA | 0.186
TCCCGAGGAGTACTGGAGA | 0.232
TCCCGGCCAGTGTTGGAGA | 0.226
TCCCGTGCAGTCGAGGAGA | 0.171
TCCCCAGGAGTGCGTGAGA | 0.384
TCCCTGCGAGTGGCCGAGA | 0.158
TCCCCGACAGTTTACGAGA | 0.272
TCCCATGTAGTCCACGAGA | 0.169
TCCCGAGGAGTGCGCGAGA | 0.117
TCCCGATAAGTCAGGGAGA | 0.162
TCCCAGTGAGTGGGAGAGA | 0.149
TCCCATTTAGTTACTGAGA | 0.233
TCCCTGATAGTACAAGAGA | 0.289
TCCCTGTAAGTGGCCGAGA | 0.204
TCCCATTTAGTCAACGAGA | 0.406
TCCCGTAGAGTCGTTGAGA | 0.197
TCCCCGCTAGTGTGTGAGA | 0.324

Sequence | TetR repression strength
TCCCAGCCAGTGGGAGAGA | 0.113
TCCCTCGGAGTCGAGGAGA | 0.333
TCCCAACTAGTGTTTGAGA | 0.137
TCCCCTTCAGTGTACGAGA | 0.517
TCCCCAGCAGTACAAGAGA | 0.285
TCCCGTATAGTTGTCGAGA | 0.0938
TCCCAGGTAGTAGTGGAGA | 0.0813
TCCCAGCAAGTTGTTGAGA | 0.157
TCCCGGGAAGTGTCGGAGA | 0.174
TCCCCCGCAGTTATGGAGA | 0
TCCCGCCCAGTGCGGGAGA | 0.145
TCCCTATGAGTGCTCGAGA | 0.295
TCCCGGTGAGTCTCGGAGA | 0.185
TCCCCAGGAGTGTCTGAGA | 0.273
TCCCGTGCAGTGGACGAGA | 0.242
TCCCGACTAGTGCTGGAGA | 0.267
TCCCCCATAGTGACCGAGA | 0.481
TCCCAGACAGTGGCGGAGA | 0.296
TCCCTTCAAGTAAAAGAGA | 0.00635
TCCCATCCAGTGTGAGAGA | 0.147
TCCCTTGGAGTCCTGGAGA | 0.363
TCCCCAGGAGTGTTTGAGA | 0.458
TCCCGTTCAGTGCGGGAGA | 0.0923
TCCCGGTCAGTCGCAGAGA | 0.129
TCCCGGTAAGTATTTGAGA | 0.615
TCCCACAAAGTAGTAGAGA | 0.186

Sequence | TetR repression strength
TCCCATTTAGTCTTCGAGA | 0.227
TCCCTGTGAGTCGCAGAGA | 0.172
TCCCACGGAGTCGACGAGA | 0.263
TCCCGTGAAGTCACTGAGA | 0.253
TCCCTCGGAGTGGAGGAGA | 0.0887
TCCCAGGGAGTGGTCGAGA | 0.152
TCCCACGGAGTGGTCGAGA | 0.116
TCCCTTATAGTCGATGAGA | 0.352
TCCCACCAAGTGTAGGAGA | 0.214
TCCCCGGCAGTCTTGGAGA | 0.223
TCCCGAGTAGTGAGGGAGA | 0.242
TCCCGTGGAGTGTTTGAGA | 0.223
TCCCTCACAGTATAAGAGA | 0.34
TCCCTGCTAGTGTTTGAGA | 0.175
TCCCGTCTAGTTTTAGAGA | 0.311
TCCCGGGCAGTCGGTGAGA | 0.245
TCCCCACTAGTGGGTGAGA | 0.361
TCCCGTTTAGTGAAGGAGA | 0.211
TCCCTGGTAGTATGAGAGA | 0.219
TCCCGTTAAGTCGGTGAGA | 0.348
TCCCTCTCAGTCGTGGAGA | 0.157
TCCCCATGAGTAGAGGAGA | 0.178
TCCCCAGCAGTGGGGGAGA | 0.174
TCCCAAAGAGTGGTCGAGA | 0.0159
TCCCCGTGAGTCCTAGAGA | 0.559
TCCCGGAGAGTTCAAGAGA | 0.362

Sequence | TetR repression strength
TCCCTGTTAGTTGGTGAGA | 0.0207
TCCCGTTGAGTGCATGAGA | 0.105
TCCCGGCGAGTGGTAGAGA | 0.306
TCCCCTACAGTGAATGAGA | 0.311
TCCCATGGAGTTGTTGAGA | 0.324
TCCCGGCCAGTTTGGGAGA | 0.281
TCCCAACCAGTTGTGGAGA | 0.257
TCCCCATCAGTGTCTGAGA | 0.579
TCCCGACGAGTGTGTGAGA | 0.173
TCCCATGTAGTGCGTGAGA | 0.231
TCCCCGGAAGTAGGGGAGA | 0.243
TCCCTTTGAGTCAACGAGA | 0.0848
TCCCTCGGAGTCGCTGAGA | 0.323
TCCCATGGAGTAGATGAGA | 0.0211
TCCCGCCCAGTTGTCGAGA | 0.0341
TCCCGCAGAGTAACTGAGA | 0.197
TCCCTGTCAGTATGTGAGA | 0.225
TCCCTCTTAGTAGGTGAGA | 0.344
TCCCTGACAGTGTACGAGA | 0.0921
TCCCGAGCAGTGAAAGAGA | 0.755
TCCCTGTTAGTTGGCGAGA | 0.0205
TCCCTCCCAGTAGGGGAGA | 0.174
TCCCTAAAAGTATCTGAGA | 0.22
TCCCATCGAGTTCAAGAGA | 0.439
TCCCAGCAAGTTGTCGAGA | 0.286
TCCCCGTGAGTGGGAGAGA | 0.0366

Sequence | TetR repression strength
TCCCGTGCAGTAAAAGAGA | 0.332
TCCCCATGAGTTTAAGAGA | 0.113
TCCCATCGAGTTTATGAGA | 0.0488
TCCCTGTGAGTAGGTGAGA | 0.163
TCCCTCACAGTGGTGGAGA | 0.278
TCCCAAGGAGTCAGCGAGA | 0.104
TCCCTGCCAGTCCCAGAGA | 0.313
TCCCAGGGAGTGCTGGAGA | 0.333
TCCCCCGGAGTATTTGAGA | 0.277
TCCCGGAGAGTGAGCGAGA | 0.161
TCCCGGGAAGTTCAGGAGA | 0.2
TCCCACTGAGTTGACGAGA | 0.211
TCCCCGGCAGTGATGGAGA | 0.177
TCCCCCCGAGTGTACGAGA | 0.257
TCCCGATAAGTGCGCGAGA | 0.158
TCCCTGATAGTCATTGAGA | 0.278
TCCCGGTGAGTAAGAGAGA | 0.32
TCCCTTTCAGTATGGGAGA | 0.422
TCCCCTAGAGTGAAAGAGA | 0.479
TCCCCTTAAGTCGTGGAGA | 0.061
TCCCATCGAGTCGGTGAGA | 0.179
TCCCAGGTAGTGTGTGAGA | 0.146
TCCCAGTAAGTAGGTGAGA | 0.246
TCCCGTTAAGTGGCTGAGA | 0.187
TCCCGGTAAGTACGCGAGA | 0.0772
TCCCTAGAAGTTCAGGAGA | 0.252

Sequence | TetR repression strength
TCCCAGTCAGTCTGTGAGA | 0.221
TCCCATTCAGTTGGGGAGA | 0.43
TCCCGTTCAGTCTCAGAGA | 0.307
TCCCAAAGAGTCGGGGAGA | 0.0626
TCCCTGCGAGTGGCGGAGA | 0.241
TCCCTTTGAGTCGCGGAGA | 0.415
TCCCGTTGAGTGCTAGAGA | 0.219
TCCCGAGTAGTGTAGGAGA | 0.201
TCCCCGAGAGTGTTGGAGA | 0.156
TCCCTGCCAGTTATGGAGA | 0.465
TCCCAAGCAGTGCAGGAGA | 0.242
TCCCCGGAAGTGGCAGAGA | 0.185
TCCCACGAAGTTAAGGAGA | 0.448
TCCCCATGAGTTACTGAGA | 0.212
TCCCAACAAGTGAATGAGA | 0.336
TCCCTCGCAGTTGATGAGA | 0.385
TCCCAGTGAGTTGAGGAGA | 0.179
TCCCATGAAGTTGCCGAGA | 0.233
TCCCGAGAAGTGCCGGAGA | 0.205
TCCCCGGGAGTCGGTGAGA | 0.171
TCCCGGGCAGTGGGGGAGA | 0.347
TCCCCTTAAGTGGAGGAGA | 0.593
